PubChem BioAssay AID485294 (National Center for Advancing Translational Sciences (NCATS), 2010)
About 150 (0.041%) of roughly 370,000 compounds were called active. Inconclusive results, whose numbers are uncertain, are shown with a selection of clear calls. The call rests on the fitted dose curve; in most records, active means well fitted inhibition curve with a large enough effect; inconclusive means small, poorly fitted or top-dose-only effect; inactive means flat fitted curve, though single readings scatter. Potencies of inconclusive entries are left out as doubtful fits.

Each compound was assayed against Beta-lactamase (Escherichia coli (strain K12)) (UniProt P00811) (assay: qHTS Inhibitors of AmpC Beta-Lactamase (assay with detergent)). Settings: AmpC hydrolysis of nitrocefin, absorbance 480 nm, 0.01% Triton; activity change, negative = inhibition: at 114 µM (top of the series).
Chain of UniProt P00811 (P00811 whole entry, looked up): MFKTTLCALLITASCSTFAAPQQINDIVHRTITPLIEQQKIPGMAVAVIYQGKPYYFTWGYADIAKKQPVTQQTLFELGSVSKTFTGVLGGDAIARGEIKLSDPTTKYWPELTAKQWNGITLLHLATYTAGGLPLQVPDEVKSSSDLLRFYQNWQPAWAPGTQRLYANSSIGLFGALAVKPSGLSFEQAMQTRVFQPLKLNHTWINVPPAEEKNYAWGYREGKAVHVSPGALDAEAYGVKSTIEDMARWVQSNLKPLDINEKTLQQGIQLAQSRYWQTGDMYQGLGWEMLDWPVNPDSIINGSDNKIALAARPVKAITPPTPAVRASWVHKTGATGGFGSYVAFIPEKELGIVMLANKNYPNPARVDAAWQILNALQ
Procedure, shortened: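 20 mM phosphate pH 7.0 + 0.01% (detergent screen) or 0.0001% Triton X-100; 5.3 nM AmpC reagent; cpd preinc 15 min RT; nitrocefin (800 uM stock) to start; A480 q20 s × 4 min; Activity was normalised to no-enzyme and no-compound control wells.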
Further: nearly all actives have a fitted effect of over 25% in size.
Potency means the concentration at half of the fitted maximal effect; tags describe the fitted curve by direction and shape.
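Wherever activity change, negative = inhibition is given: 0% = no-compound wells and -100% = no-enzyme wells.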

SMILES | Potency | activity change, negative = inhibition
COc1cc(NC(=O)Nc2cccc([N+](=O)[O-])c2)cc(OC)c1 | inconclusive [inhibitor, full curve, poor fit] | –
Cc1ccc(S(=O)(=O)NCCc2nnc3ccc(SCc4ccccc4F)nn23)cc1 | – | inactive: -1.85%
O=C(CCCN=C1NS(=O)(=O)c2ccccc21)OCc1ccccc1 | inconclusive [inhibitor, full curve] | –
CCCCn1c(N)c(N(CCOC)C(=O)CSCc2ccc(Cl)c(Cl)c2)c(=O)[nH]c1=O | inconclusive [inhibitor, full curve, poor fit] | –
Cc1ccc(C)c2c1cc(C)c1nnc(SCC(=O)Nc3nc4c(s3)CCCC4)n12 | inconclusive [inhibitor, partial curve, poor fit] | –
Cc1cc(=O)n2nc(N3CCCC(C(=O)N4CCN(c5ccccc5)CC4)C3)sc2n1 (centres undefined) | inconclusive [inhibitor, full curve, poor fit] | –
O=C(NCc1ccc(F)cc1)c1cc(C(=O)C2CC2)c[nH]1 | inconclusive [inhibitor, full curve, poor fit] | –
O=C(O)c1ccccc1-c1ccc(C=C2C(=O)N(c3ccccc3)C(=S)N(c3ccccc3)C2=O)o1 | inconclusive [inhibitor, partial curve, poor fit] | –
CCN(CC)CCN(Cc1cc2cc3c(cc2[nH]c1=O)OCO3)C(=S)NCCCN(C)C | inconclusive [inhibitor, full curve] | –
COc1cccc(Oc2ccc(N/C=C/C(=O)C(C)(C)C)cc2)c1 | inconclusive [inhibitor, full curve, poor fit] | –
CCC(=O)Nc1nc2ccc(S(C)(=O)=O)cc2s1 | inconclusive [inhibitor, single point] | –
Cn1c(SCc2ccc(Br)cc2)nc2c(c1=O)SCC2 | inconclusive [inhibitor, full curve, poor fit] | –
CC(C)CNC(=S)NNC(=O)c1ccco1 | inconclusive [inhibitor, partial curve, poor fit] | –
CCc1ccc(N(CC(=O)NC2CCCC2)S(=O)(=O)c2c(C)noc2C)cc1 | inconclusive [inhibitor, full curve] | –
CCOc1ccc(NC(=S)NC23CC4CC(CC(C4)C2)C3)cc1 | inconclusive [inhibitor, full curve, poor fit] | –
Cc1cc(C)cc(OC(C)C(=O)NCCCn2ccnc2)c1 (centres undefined) | inconclusive [inhibitor, full curve, poor fit] | –
CN1C(=O)c2cccc(NC(=O)Cc3ccccc3)c2C1=O | inconclusive [inhibitor, partial curve, poor fit] | –
Cc1cccc(C)c1OCc1cc(C(=O)NC2CCC2)no1 | inconclusive [inhibitor, full curve, poor fit] | –
CCOC(=O)c1oc2ccc(Cl)cc2c1NC(C)=O | inconclusive [inhibitor, full curve, poor fit] | –
CCCOc1ccc(Cl)cc1/C=C1/C(=O)ON=C1C | – | inactive: -11.9%
Nc1ccc(N2CCN(c3ccc(Cl)c(Cl)c3)CC2)cc1 | inconclusive [inhibitor, full curve, poor fit] | –
Cc1c(C(=O)O)c(=S)sn1CCOc1ccccc1 | inconclusive [inhibitor, full curve, poor fit] | –

SMILES | Potency | activity change, negative = inhibition
COc1ccc(-n2cc(-c3ccccc3)c3c(N4CCCC(C)C4)ncnc32)cc1 (centres undefined) | – | inactive: 0.532%
C[N+](C)(C)CCOP(=O)([O-])OC[C@H](O)CO | inconclusive [inhibitor, full curve, poor fit] | –
Cc1ccc(/C=C/C(=O)c2ccccc(=O)c2O)c(C)c1 | inconclusive [inhibitor, partial curve] | –
Cc1ccc(CSCC(=O)N(C)CC(=O)Nc2cccc(F)c2)cc1 | inconclusive [inhibitor, full curve] | –
Brc1ccccc1OCCCCn1cnc2ccccc21 | inconclusive [inhibitor, single point] | –
O=C(NCc1nnnn1-c1ccc(F)c(F)c1)C(=O)c1c[nH]c2ccccc12 | inconclusive [inhibitor, single point] | –
NC(=O)c1ccccc1NC(=O)CN1CCN(Cc2ccccc2)CC1 | inconclusive [inhibitor, full curve, poor fit] | –
Cc1ccn(C(=O)c2ccc(NC(=O)C3CC3)cc2)n1 | inconclusive [inhibitor, full curve] | –
CCOC(=O)c1cc2c(=O)n3ccccc3nc2n(CC2CCCO2)c1=NC(=O)c1cccc(C)c1 (centres undefined) | – | inactive: -5.1%
CCOc1cc(S(=O)(=O)NCc2ccco2)c(OCC)cc1-n1cnnn1 | inconclusive [inhibitor, full curve] | –
O=C(CN1CCN(c2ccccc2)CC1)NC(=O)NCc1ccccc1 | inconclusive [inhibitor, full curve, poor fit] | –
COc1cc(NC(=O)Nc2ccc3c(c2)OCO3)cc(OC)c1OC | inconclusive [inhibitor, single point] | –
Cc1ccccc1NC(=O)NCCc1ccc(Cl)cc1 | inconclusive [inhibitor, single point] | –
CCOC(Cn1c(SCC(=O)Nc2cc(C)on2)nc2ccccc2c1=O)OCC | inconclusive [inhibitor, full curve, poor fit] | –
CCCCOC(=O)c1ccc(NC(=O)CSC2=Nc3ccccc3C3CC=NN23)cc1 (centres undefined) | inconclusive [inhibitor, full curve, poor fit] | –
N#Cc1cccc(S(=O)(=O)NCC(=O)NCc2ccc3c(c2)OCO3)c1 | – | inactive: -2.31%
CC(C)(C)NC(=O)C1CC2CCCCC2CN1 (centres undefined) | inconclusive [inhibitor, full curve, poor fit] | –
c1csc(-c2nc3nc4ccccc4nc3n2Cc2ccc3c(c2)OCO3)c1 | inconclusive [inhibitor, full curve, poor fit] | –
Cc1c(NC(=O)c2ccc(S(=O)(=O)N3CC(C)OC(C)C3)cc2)c(=O)n(-c2ccccc2)n1C (centres undefined) | – | inactive: -8.4%
Cc1cc(C(=O)NC(=S)Nc2ccccc2N2CCCC2)ccc1[N+](=O)[O-] | inconclusive [inhibitor, single point] | –
COc1cc2nc3c4ccccc4n(CC#N)c3nc2cc1OC | inconclusive [inhibitor, full curve, poor fit] | –
COc1ccc(NCc2cc3cc(OC)ccc3[nH]c2=O)cc1 | inconclusive [inhibitor, full curve, poor fit] | –

SMILES | Potency | activity change, negative = inhibition
O=C(C1CCCN(S(=O)(=O)c2ccccc2[N+](=O)[O-])C1)N1CCN(c2ccccc2)CC1 (centres undefined) | inconclusive [inhibitor, single point] | –
Cc1cc2cc(CNC(=O)c3cccc([N+](=O)[O-])c3)ccc2n1C | inconclusive [inhibitor, partial curve, poor fit] | –
O=C(NC1CCN(Cc2ccccc2)CC1)C1CCN(S(=O)(=O)c2cccc3nsnc23)CC1 | – | inactive: 1.92%
CCOC(=O)c1sc2nc(NC(=O)C(C)(C)C)sc2c1C | inconclusive [inhibitor, full curve, poor fit] | –
COc1ccc(O)c(C2=Nc3ccccc3N=C(c3cccs3)C2)c1 | inconclusive [inhibitor, single point] | –
CC(C)[C@H](NC(=O)OC(C)(C)C)C(=O)NCC1CCC(C(=O)N[C@@H](Cc2ccccc2)C(=O)O)CC1 (some centres undefined) | inconclusive [inhibitor, partial curve] | –
O=c1[nH]c(=O)n(CCC2=CCCCC2)c(O)c1C=NCCN1CCNCC1 | inconclusive [inhibitor, single point] | –
CN(C)c1ccc(NC(=O)CSc2nnc(-c3cnccn3)n2C)cc1 | inconclusive [inhibitor, full curve, poor fit] | –
O=C(O)CCn1c(SCc2ccccc2)nc2ccccc21 | – | inactive: -3.71%
CCOc1ccc2nc(Cl)sc2c1 | – | inactive: -6.93%
COc1ccc(C(=O)N(CCCO)C(C)C(=O)NC2CCCCC2)cc1OC (centres undefined) | inconclusive [inhibitor, full curve, poor fit] | –
COc1ccc(-c2cccc(C(=O)Nc3cccc(C(=O)O)c3)c2)cc1 | inconclusive [inhibitor, single point] | –
O=C(CSCc1ccccc1)N1CCN(c2ccccc2)CC1 | inconclusive [inhibitor, partial curve, poor fit] | –
O=C(CN1CCOCC1)Nc1ccc([N+](=O)[O-])cc1 | inconclusive [inhibitor, partial curve, poor fit] | –
O=C(Nc1ccc(O)c2c(=O)cc(-c3ccccc3Cl)oc12)c1ccccc1Cl | inconclusive [inhibitor, full curve, poor fit] | –
CCC(CC)C(=O)N1c2ccccc2C(C)(c2ccccc2)CC1(C)C (centres undefined) | – | inactive: 17.2%
CCCc1ccc(OCc2nc(-c3ccc(NC(=O)c4ccco4)cc3)no2)cc1 | – | inactive: -0.5%
COc1ccc(C(=O)NCCSc2c[nH]c3ccccc23)cc1OC | – | inactive: 11.5%
CCOc1ccccc1NC(=O)C1CCN(S(=O)(=O)c2cccc3cccnc23)CC1 | inconclusive [inhibitor, full curve, poor fit] | –
Clc1ccc(CSc2ccc(-c3cccs3)nn2)cc1 | – | inactive: -1.38%
